# Laboratory results: the supplement of paper PMC12217912
# This is one part of the list. Sequences were assembled here from the parent chain. Inactive controls read about 0.05.
# B1: TEV protease; numbered along this chain (parent)
# chain: MGESLFKGPRDYNPISSSICHLTNESDGHTTSLYGIGFGPFIITNKHLFRRNNGTLVVQSLHGVFKVKDTTTLQQHLVDGRDMIIIRMPKDFPPFPQKLKFREPQREERICLVTTNFQTKSMSSMVSDTSCTFPSGDGIFWKHWIQTKDGQCGSPLVSTRDGFIVGIHSASNFTNTNNYFTSVPKNFMELLTNQEAQQWVSGWRLNADSVLWGGHKVFMVKPEEPFQPVKEATQL
# Variants of: B1
# Assay: raw area under fraction-flipped curve 0-4 h after induction (AUC4h, not background-subtracted), DNA-recorder readout of cleavage of the substrate (dimensionless); higher = more cleavage of the substrate by the protease variant
# Conditions: temperature: 34 °C; time window: 0-4 h after rhamnose induction
# Method: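 In vivo DNA recorder in E. coli TOP10(DE3) ΔrhaA at 34 °C. Each TEVp single-site mutant (parent TEVp 0) is paired with a single-site variant of the 7-mer TEVs (canonical ENLYFQ|S). The substrate sits between flexible linkers in a Bxb1-sfGFP-TEVs-SsrA fusion, so cleavage stabilises Bxb1 and speeds flipping of a recombination array, read by NGS. The value is the raw area under the fraction-flipped curve over 0-4 h after rhamnose induction (AUC4h), with ≥20 reads per time point. It is not background-subtracted; inactive controls average about 0.047.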
# 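Also: Bxb1 expression induced with 0.2% (w/v) L-rhamnose at OD600 near 0.5, cultures sampled hourly, flipped fraction per protease–substrate barcode pair counted by paired-end Illumina sequencing.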
Variant,area with substrate ENLAFQS,area with substrate ENLCFQS,area with substrate ENLDFQS,area with substrate ENLHFQS,area with substrate ENLKFQS,area with substrate ENLLFQS,area with substrate ENLNFQS,area with substrate ENLQFQS,area with substrate ENLSFQS,area with substrate ENLTFQS,area with substrate ENLVFQS,area with substrate ENLWFQS,area with substrate ENLEFQS,area with substrate ENLFFQS,area with substrate ENLGFQS,area with substrate ENLIFQS,area with substrate ENLMFQS,area with substrate ENLPFQS,area with substrate ENLRFQS
MGESLFKGPRDYNPISSSICHLTNESDGHTTSLYGIGFGPFIITNKHLFRRNNGTLVVQSLHGVFKVKDTTTLQQHLVDGRDMIIIRMPKDFPPFPQKLKFREPQREERICLVTTNFQTKSMSSMVSDTSCTFPSGDGIFWKHWIQTKDGQCGSPLVSTRDGFIVGIHSASNFTNTNNYFTPVPKNFMELLTNQEAQQWVSGWRLNADSVLWGGHKVFMVKPEEPFQPVKEATQL [S182P],0.0637,0.0554,0.0621,0.0701,0.0906,0.0561,0.0376,0.0728,0.0757,0.0411,0.0974,0.0728,–,–,–,–,–,–,–
MGESLFKGPRDYNPISSSICHLTNESDGHTTSLYGIGFGPFIITNKHLFRRNNGTLVVQSLHGVFKVKDTTTLQQHLVDGRDMIIIRMPKDFPPFPQKLKFREPQREERICLVTTNFQTKSMSSMVSDTSCTFPSGDGIFWKHWIQTKDGQCGSPLVSTRDGFIVGIHSASNFTNTNNYFTYVPKNFMELLTNQEAQQWVSGWRLNADSVLWGGHKVFMVKPEEPFQPVKEATQL [S182Y],0.0501,–,0.0628,0.0571,0.0466,0.146,0.0499,–,0.049,–,0.0564,–,0.0637,0.0454,0.066,0.0504,0.0379,–,–
MGESLFKGPRDYNPISSSICHLTNESDGHTTSLYGIGFGPFIITNKHLFRRNNGTLVVQSLHGVFKVKDTTTLQQHLVDGRDMIIIRMPKDFPPFPQKLKFREPQREERICLVTTNFQTKSMSSMVSDTSCTFPSGDGIFWKHWIQTKDGQCGSPLVSTRDGFIVGIHSASNFTNTNNYFTSQPKNFMELLTNQEAQQWVSGWRLNADSVLWGGHKVFMVKPEEPFQPVKEATQL [V183Q],0.0331,0.0535,0.0448,0.047,–,0.0651,0.0488,0.0477,0.0575,–,–,0.0606,–,0.0508,–,–,0.0617,0.0444,0.0638
MGESLFKGPRDYNPISSSICHLTNESDGHTTSLYGIGFGPFIITNKHLFRRNNGTLVVQSLHGVFKVKDTTTLQQHLVDGRDMIIIRMPKDFPPFPQKLKFREPQREERICLVTTNFQTKSMSSMVSDTSCTFPSGDGIFWKHWIQTKDGQCGSPLVSTRDGFIVGIHSASNFTNTNNYFTSVPKDFMELLTNQEAQQWVSGWRLNADSVLWGGHKVFMVKPEEPFQPVKEATQL [N186D],0.0627,0.0756,–,0.0728,0.0854,–,0.0657,0.0366,–,–,0.0865,–,0.0601,0.0936,–,–,–,0.053,–
MGESLFKGPRDYNPISSSICHLTNESDGHTTSLYGIGFGPFIITNKHLFRRNNGTLVVQSLHGVFKVKDTTTLQQHLVDGRDMIIIRMPKDFPPFPQKLKFREPQREERICLVTTNFQTKSMSSMVSDTSCTFPSGDGIFWKHWIQTKDGQCGSPLVSTRDGFIVGIHSASNFTNTNNYFTSVPKNFAELLTNQEAQQWVSGWRLNADSVLWGGHKVFMVKPEEPFQPVKEATQL [M188A],0.0751,–,–,–,–,–,0.0647,0.0509,0.0467,–,–,0.0662,0.0719,0.105,–,–,–,0.058,0.0673
MGESLFKGPRDYNPISSSICHLTNESDGHTTSLYGIGFGPFIITNKHLFRRNNGTLVVQSLHGVFKVKDTTTLQQHLVDGRDMIIIRMPKDFPPFPQKLKFREPQREERICLVTTNFQTKSMSSMVSDTSCTFPSGDGIFWKHWIQTKDGQCGSPLVSTRDGFIVGIHSASNFTNTNNYFTSVPKNFMFLLTNQEAQQWVSGWRLNADSVLWGGHKVFMVKPEEPFQPVKEATQL [E189F],0.062,–,0.0559,0.0668,0.073,0.0682,–,–,0.0554,–,–,0.0545,–,–,–,–,0.0566,0.0752,0.0765
MGESLFKGPRDYNPISSSICHLTNESDGHTTSLYGIGFGPFIITNKHLFRRNNGTLVVQSLHGVFKVKDTTTLQQHLVDGRDMIIIRMPKDFPPFPQKLKFREPQREERICLVTTNFQTKSMSSMVSDTSCTFPSGDGIFWKHWIQTKDGQCGSPLVSTRDGFIVGIHSASNFTNTNNYFTSVPKNFMELLTLQEAQQWVSGWRLNADSVLWGGHKVFMVKPEEPFQPVKEATQL [N193L],0.0631,0.0628,0.0766,0.0631,0.113,–,–,–,0.058,–,–,–,–,0.0671,–,0.0844,–,0.0614,–
MGESLFKGPRDYNPISSSICHLTNESDGHTTSLYGIGFGPFIITNKHLFRRNNGTLVVQSLHGVFKVKDTTTLQQHLVDGRDMIIIRMPKDFPPFPQKLKFREPQREERICLVTTNFQTKSMSSMVSDTSCTFPSGDGIFWKHWIQTKDGQCGSPLVSTRDGFIVGIHSASNFTNTNNYFTSVPKNFMELLTNQESQQWVSGWRLNADSVLWGGHKVFMVKPEEPFQPVKEATQL [A196S],0.0594,–,0.0617,0.0806,0.0536,–,0.0643,0.0637,0.0507,0.0739,0.0773,0.0681,0.0635,0.0873,–,0.0835,0.0739,–,0.104
MGESLFKGPRDYNPISSSICHLTNESDGHTTSLYGIGFGPFIITNKHLFRRNNGTLVVQSLHGVFKVKDTTTLQQHLVDGRDMIIIRMPKDFPPFPQKLKFREPQREERICLVTTNFQTKSMSSMVSDTSCTFPSGDGIFWKHWIQTKDGQCGSPLVSTRDGFIVGIHSASNFTNTNNYFTSVPKNFMELLTNQEAQHWVSGWRLNADSVLWGGHKVFMVKPEEPFQPVKEATQL [Q198H],0.0734,–,0.0559,–,–,0.073,0.0698,–,–,0.0789,–,–,0.0575,–,0.0787,–,–,–,–
MGESLFKGPRDYNPISSSICHLTNESDGHTTSLYGIGFGPFIITNKHLFRRNNGTLVVQSLHGVFKVKDTTTLQQHLVDGRDMIIIRMPKDFPPFPQKLKFREPQREERICLVTTNFQTKSMSSMVSDTSCTFPSGDGIFWKHWIQTKDGQCGSPLVSTRDGFIVGIHSASNFTNTNNYFTSVPKNFMELLTNQEAQMWVSGWRLNADSVLWGGHKVFMVKPEEPFQPVKEATQL [Q198M],0.0607,–,0.0533,0.0681,0.0609,0.0363,–,–,0.0709,0.0802,–,0.0824,0.0842,0.0816,–,0.0864,0.0595,0.0696,0.0685
